This assay has as its target Kelch-like ECH-associated protein 1 (Homo sapiens) (UniProt Q14145). Briefly: competitive SPR blockade of Keap1/Nrf2 binding – biophysical, dry powder, orthogonal assay for Keap1-Nrf2 interaction inhibitor project, confirmation (AID 651876). To be noted: Keap1 Kelch binding to Nrf2 peptide, at 50 µM, stronger effect = higher value. The method in brief: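 System – Keap1 Kelch domain, biochemical · Probe or stimulus – biotinylated 16mer Nrf2 peptide captured on streptavidin CM5 surface · Timing – room-temperature preincubation, 25 °C binding · Signal – Double-referenced surface plasmon resonance, initial association-phase slopes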
UniProt Q14145, sequence (Q14145 whole entry, looked up, the tested form may be a part): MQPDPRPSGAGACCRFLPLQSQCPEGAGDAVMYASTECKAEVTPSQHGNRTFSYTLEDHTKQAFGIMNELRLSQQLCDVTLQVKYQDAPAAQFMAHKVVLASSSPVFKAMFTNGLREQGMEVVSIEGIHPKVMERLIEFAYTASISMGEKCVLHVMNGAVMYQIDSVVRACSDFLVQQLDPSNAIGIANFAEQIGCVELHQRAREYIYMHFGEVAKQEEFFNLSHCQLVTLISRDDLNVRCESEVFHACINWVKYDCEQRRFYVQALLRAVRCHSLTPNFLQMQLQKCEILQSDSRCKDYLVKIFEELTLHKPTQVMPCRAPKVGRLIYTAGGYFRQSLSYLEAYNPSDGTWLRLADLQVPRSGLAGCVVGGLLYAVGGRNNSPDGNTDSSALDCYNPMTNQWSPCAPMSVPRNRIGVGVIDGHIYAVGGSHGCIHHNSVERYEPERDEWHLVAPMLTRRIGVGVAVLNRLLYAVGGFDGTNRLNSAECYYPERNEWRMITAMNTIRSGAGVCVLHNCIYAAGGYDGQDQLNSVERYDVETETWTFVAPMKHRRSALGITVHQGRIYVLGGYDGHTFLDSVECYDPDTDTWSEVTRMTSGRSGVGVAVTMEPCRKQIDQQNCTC

Some entries of the source have several records that differ or are many. This list holds those alone.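 Rule for the calls: active = inhibition above 20% at 50 µM; inactive = the rest.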 An entry can have further records. Values that stand side by side are repeats (runs, samples, wells, individuals or studies). What stands in brackets tells the records apart. Letters count within one entry.

For `Cc1ccc(S(=O)(=O)NC(=O)[C@@H]2c3ccccc3CCN2C(=O)[C@@H]2CCCC[C@@H]2C(=O)O)cc1`, the inhibition was 39.6% [sample A] and inactive: 3.9% [sample B].

For `O=C(O)[C@H]1CCCC[C@H]1C(=O)N1CCC2=C(CCCC2)C1CN1C(=O)c2ccccc2C1=O` (some centres not stated), the inhibition is 65% [sample A] and inactive: 12.6% [sample B].

One may read the inhibition as the share of the control response that was lost under treatment.

Source of the values: PubChem BioAssay AID651876 (Broad Institute, 2012).
